Binding data for 3 substances are collected here from paper PMC10730909.

Sequences of proteins named here, by UniProt entry; tags and fusion partners are left off.
UniProt Q96EP0: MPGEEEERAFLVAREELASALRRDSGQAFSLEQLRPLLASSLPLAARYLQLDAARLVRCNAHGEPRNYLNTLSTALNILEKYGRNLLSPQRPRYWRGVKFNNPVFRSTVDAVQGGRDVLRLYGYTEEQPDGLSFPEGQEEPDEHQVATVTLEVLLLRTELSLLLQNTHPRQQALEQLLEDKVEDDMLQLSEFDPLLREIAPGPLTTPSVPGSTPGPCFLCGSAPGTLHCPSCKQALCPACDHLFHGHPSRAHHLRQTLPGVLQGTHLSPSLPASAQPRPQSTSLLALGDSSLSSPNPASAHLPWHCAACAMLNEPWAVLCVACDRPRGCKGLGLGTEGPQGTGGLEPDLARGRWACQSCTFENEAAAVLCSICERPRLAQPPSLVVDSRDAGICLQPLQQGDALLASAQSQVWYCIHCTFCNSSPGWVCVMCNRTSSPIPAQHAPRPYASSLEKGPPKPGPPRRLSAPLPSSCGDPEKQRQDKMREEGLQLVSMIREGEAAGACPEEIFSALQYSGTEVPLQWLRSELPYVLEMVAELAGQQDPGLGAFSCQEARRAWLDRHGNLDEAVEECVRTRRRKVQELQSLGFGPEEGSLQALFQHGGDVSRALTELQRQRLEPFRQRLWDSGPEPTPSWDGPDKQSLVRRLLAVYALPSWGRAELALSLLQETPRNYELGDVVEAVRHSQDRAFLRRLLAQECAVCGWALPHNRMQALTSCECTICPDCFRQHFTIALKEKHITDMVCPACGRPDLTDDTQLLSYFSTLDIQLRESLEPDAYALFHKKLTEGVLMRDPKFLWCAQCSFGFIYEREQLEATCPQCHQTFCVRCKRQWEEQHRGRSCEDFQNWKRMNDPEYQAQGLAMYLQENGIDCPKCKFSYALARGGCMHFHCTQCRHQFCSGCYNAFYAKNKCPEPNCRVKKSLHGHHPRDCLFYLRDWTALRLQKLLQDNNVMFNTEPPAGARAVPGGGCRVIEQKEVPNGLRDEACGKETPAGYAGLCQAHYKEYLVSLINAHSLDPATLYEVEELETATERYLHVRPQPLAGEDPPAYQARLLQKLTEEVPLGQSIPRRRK

No constants are given. Whether binding was seen depends on the method and setting. For part of these data: Binding seen in cells or lysates may run through a third protein. Some binding calls cover weakened binding; strength is not graded here.

Test [1] concerns the target HA-tagged wildtype NEMO (human) (UniProt Q9Y6K9). Description: co-IP; HEK293T cells transfected with HA-NEMO, lysed in 1% Triton X-100 in PBS; anti-HA beads, blot for the endogenous partner (HOIP, p62); anti-c-myc beads or FLAG-NEMO as control for unspecific binding.
In test [2] the target is HA-tagged Q330X NEMO (human) (UniProt Q9Y6K9). The test is described as above.
Test [3] has as its target recombinant MBP-NEMO Q330X (human) (UniProt Q9Y6K9). Description: pull-down; 2.5 µM recombinant MBP-NEMO and 2 µM recombinant mCherry-p62 without linear tetra-ubiquitin, 25 µL MBP affinity agarose beads, 4 h at 4 °C; 50 mM HEPES pH 7.4, 150 mM NaCl, 1% Triton X-100, 10% glycerol; blot for p62; both purified.
Test [4] addresses recombinant MBP-NEMO WT (human) (UniProt Q9Y6K9). The description is as above.
Test [5] has as its target recombinant MBP-NEMO Q330X (human) (UniProt Q9Y6K9). Description: condition: 2 µM mCherry-p62, 2.5 µM MBP-NEMO Q330X, 1 µM 4×M1-ub; pull-down; 2.5 µM recombinant MBP-NEMO and 2 µM recombinant mCherry-p62 with 1 µM recombinant linear tetra-ubiquitin (4×M1-ub), 25 µL MBP affinity agarose beads, 4 h at 4 °C; 50 mM HEPES pH 7.4, 150 mM NaCl, 1% Triton X-100, 10% glycerol; blot for p62; both purified.

Regarding “endogenous HOIP (from UniProt Q96EP0 1-1072) (enzyme)”, the binding entry in test [1] is reported as “binds”; in test [2], “no binding”.
With “recombinant 6xHis-mCherry-p62 (from UniProt Q13501 1-440)”, the binding result was “no binding (tested: 2 µM mCherry-p62, 2.5 µM MBP-NEMO Q330X)” in test [3]; “binds weakly” in test [4]; “no binding” in test [5].
With “endogenous p62 (from UniProt Q13501 1-440)”, the binding result in test [2] is reported as “no binding”.
